# Several values for one entry are separate records, joined by “and”; a condition that tells them apart may be missing. Equal values may be shown once. Among all 300,000 compounds or so, about 1,200 (0.4%) were called active. This list was built around the results that the source calls inconclusive (neither active nor inactive); the mix of calls is not that of the screen. No stated cut-off is given here; in the data, active means activity change below about -75% (passing the limit was not always enough); inconclusive means no clear call, values can overlap the other calls.
# Assay: modulation of AI-2 quorum-sensing luminescence – JMH597 strain, luminescence/OD600 ratio, primary screen (AID 2094);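 further: luminescence divided by OD600 gain over 9 h not by final OD600 alone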
# Details: Vibrio harveyi JMH597 AI-2 luminescence/OD600 ratio, 9 h; at 7.5 µM; stronger effect = lower value
row,Compound,activity change
1,S=c1[nH]c2ccccc2[nH]1,inactive: 13.7%
2,O=c1c2ccccc2[se]n1-c1ccccc1,inconclusive: -93.8%
3,CCn1nc(-c2ccccc2)nc2c(=O)n(C)c(=O)nc1-2,active: -92.5%
4,Nc1nonc1C(=O)N/N=C/c1ccc([N+](=O)[O-])o1,active: -83.9%
5,CN(C)[C@@H]1C(=O)C(C(N)=O)=C(O)[C@@]2(O)C(=O)C3=C(O)c4c(O)cccc4[C@@](C)(O)C3[C@H](O)C12 (some centres undefined),active: -81.6%
6,COc1ccc(N2C(=O)NC(=O)/C(=C\c3ccc([N+](=O)[O-])s3)C2=O)cc1,inconclusive: -37.3%
7,CC/C(=N\NC(=O)Nc1ccccc1)c1c(O)n(Cc2ccccc2)c(=O)[nH]c1=O,inconclusive: -55.7%
8,O=c1[nH]c(=O)n(-c2ccc(Cl)cc2)c(O)c1C=Nc1ccc(S(=O)(=O)Nc2nccs2)cc1,active: -77.9%
9,CN1CCN(c2c(N)c(=O)oc3ccccc23)CC1,inactive: 11.7%
10,Cc1ccc(O)c(CN2CCN(c3ccccc3)CC2)c1,active: -79.4%
11,CN1C(=O)/C(=C\c2ccc(Br)s2)C(=O)NC1=S,inconclusive: -38.2%
12,COC(=O)C1=C(c2cc3ccccc3s2)C[C@@H]2CC[C@H]1N2C(=O)NC1CCCCC1,inactive: 4.56%
13,Cc1nc2c(=O)n(C)c(=O)nc-2n(C)n1,active: -95.3%
14,O=C1NC(=S)NC(=O)C1=Cc1cccn1-c1ccc(O)cc1,inconclusive: -17.6%
15,O=C1C(=O)c2ccccc2-c2ccccc21,inconclusive: -79% and inconclusive: -38.7%
16,CN(C)C1C(=O)C(C(N)=O)=C(O)C2(O)C(=O)C3=C(O)c4c(O)cccc4C(C)(O)C3C(O)C12 (centres undefined),inconclusive: -77%
17,Oc1c(Cl)c(Cl)c(Cl)c(Cl)c1Cl,inconclusive: -90.7%

row,Compound,activity change
1,C/C(=C\c1ccc(N(C)C)cc1)[N+](=O)[O-],active: -90.8%
2,COc1ccc(N2C(=O)NC(=O)/C(=C/c3ccc([N+](=O)[O-])s3)C2=O)cc1,inconclusive: -36.2%
3,CC[n+]1c(/C=C/C=C/c2ccc(N(C)C)cc2)sc2ccccc21,inconclusive: -53.5%
4,Cc1cc(C(=O)N=Nc2c(O)n(C)c3ccccc23)c(C)o1,inactive: 6.14%
5,O=C(c1cc2cc(Br)ccc2[nH]1)N1CCC2(CC1)OCCO2,inconclusive: -59.6%
6,CCCCC/C(=N\O)c1c[nH]c2ccccc12,inconclusive: -70.2%
7,COC(=O)C1=C(c2ccc(S(C)(=O)=O)cc2)C[C@@H]2CC[C@H]1N2C(=O)N1CCCC1,inactive: -6.88%
8,COc1cc(/C=C/c2nc3ccccc3c(=O)n2-c2cccc(O)c2)ccc1O,inconclusive: -15.9%
9,CCn1nc(/C=C/c2ccccc2)nc2c(=O)n(C)c(=O)nc1-2,inconclusive: -76.7%
10,O=C1NC(=O)C(=Cc2ccc(-c3ccc(Cl)cc3)o2)C(=O)N1,inconclusive: -52.2%
11,O=C1NC(=O)N(c2ccccc2F)C(=O)/C1=C/c1cn(CC(=O)N2CCOCC2)c2ccccc12,inactive: 10.2%
12,COc1cc(/C=C/[N+](=O)[O-])ccc1O,inconclusive: -107%
13,CCOC(=O)C1=C(N)OC2=C(C(=O)CCC2)C12C(=O)N(CC(N)=O)c1ccccc12 (centres undefined),inconclusive: -169%
14,O=C1NC(=O)N(Cc2ccco2)C(=O)/C1=C/c1ccc(-c2cccc([N+](=O)[O-])c2)o1,inactive: 34.5%
15,O=C(Nc1cccc(Cl)c1)OC1CN2CCC1CC2 (centres undefined),inconclusive: -54.2%
16,Cc1ccc(C(=O)COC(=O)Cc2ccccc2)cc1,inconclusive: -76.1%
17,COc1ccc(OC)c(N2C(=O)NC(=O)/C(=C/c3ccc([N+](=O)[O-])s3)C2=O)c1,inconclusive: -26.6%

# Reference: PubChem BioAssay AID2094 (Broad Institute, 2009)
